This is one part of the list.
What follows are sequences tested on PF3D7_0420300 AP2 domain 1 (GST-tagged) (assay: gcPBM binding intensity (ln(normalized median fluorescence intensity)); higher = stronger DNA binding).
Method in brief: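 Probes on an Agilent 4 × 180k array were primer-extended, double-stranded and 36 bp long, taken from intergenic genomic regions, with negative controls added. GST-tagged P. falciparum DNA-binding domains from E. coli, about 25 μg on average, were applied to the array for 1 h in 1× PBS containing 1% milk, 0.2 mg/ml BSA, 0.5% salmon testes DNA and 0.03% Triton X-100. Binding intensity, obtained after Alexa488 anti-GST antibody detection and a 488 nm scan, is the highest Masliner-normalised natural-log median intensity across replicate spots of either probe orientation.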

Sequence	gcPBM binding intensity (ln)
TATATTAAACTTTGCACACATAATTTAACTACAAAG [CACACA_site3441]	9.28
AATCATTTATTGATGGTGCAATATACCATCTAATGA [GTGCAC_site9440]	8.9
GTTCTACAAGCCACTGCATGCTGATATAGAATAAAT [TGCATGCA_site138]	9.08
ATATGATTATTATTATATAAATTATAAAGTCTAATA [GTGCAC_negctrl_site586]	8.75
TCATATATCCTTATCACACATATAATAAATTCCCTT [CACACA_site4457]	9.25
AATATTTCTCATTTTGTGCACTGAAAAATGTAATAT	9.1
TTCTTTGCTTTTCAAACACACAAAAGTTATTATAGT [CACACA_site6390]	9.33
GGAATTGAAAAATCAGCACACACACTAATACATACA [CACACA_site9059]	9.86
AAATGGCAATAATGGACACACAAATGTTGTTATATA [CACACA_site2819]	9.43
AATAATTGTTAAAGGTGTACAATACCTACATAAGAA [XGTACX_site4215]	9.31
AAAAAGGAAATTTACACACACATATAATATACATTA [CACACA_site3296]	9.77
ATTTACCAGACCATATGTACATACATAAAACACACA [XGTACX_site3788]	9.63
CAATGCAAGGCTTAAAAAAATGGGCATATTATATAT [GTGCAC_negctrl_site304]	9.15
TTTTTTTACAACATTACACACAAATATTCTGGGTTA [CACACA_site3755]	9.44
AATATTATATTAAAATGTACAAAAATGAATTACTTT [XGTACX_site1473]	9.12
TCACATTTTGGACACGTGCACATATATTTGATACAT	9.38
AAAATTAATTATTACAAAAATGAAAAGACATATTTT [GTGCAC_negctrl_site735]	9.07
ATTTATATATAAATGTGTACATATATATATATAAAC [XGTACX_site7592]	9.27
TACCATGTTCAAATTACACACATATAATGCAATATA [CACACA_site7034]	9.43
CTGAAATTAACAAAAGTGCATAAAAATAAAAAATAT [GTGCAC_site9652]	9.41
ATTGTAAGTAAACACACACACATATATCTGTATTTA [CACACA_site4542]	9.93
ACGTGTGATTATAATTGTACTTTAATGTAAGAATGA [XGTACX_site1109]	9.27
ATATATATATATATATGTACTTATAATAATATTCAA [XGTACX_site2593]	9.13

Sequence	gcPBM binding intensity (ln)
TTATTTTATTTTTTTGTGCACATATATATTTATAAA [GTGCAC_site9615]	9.29
AATTTTATTTAATTTTTTTGGGAAATGATAAAATTT [CACACA_negctrl_site934]	8.83
AAAAAAAAAAAAAAAACACACATACATACATACATA [CACACA_site6125]	9.61
TTTTTTTTTTTTTTTGCACACACCATATTTATAGAA [CACACA_site3310]	9.46
AGAAAAGTGATATATACACACTTATATTTATTTATA [CACACA_site7350]	9.25
TTTTATAAGGTGAAAAGTACATATAACTTATTTTAC [XGTACX_site5572]	9.08
TATTGTCTATAATAAACACACAATATTAAAAATATA [CACACA_site6624]	9.24
ATCTTTCCTATTTGTAGTACAAAAAAAAAAAAAAAA [XGTACX_site5485]	8.78
TTAAATGATGTAAACACACACATATACATTATTATA [CACACA_site3162]	9.48
TACACAAGGGGAAAAATATATATATATATATATATA [TGCATGCA_negctrl_site217]	8.95
TAAAAAATTTTATATTCACACACATATATATATATA [CACACA_site8109]	9.45
TAAAAGTATATATATACACACATAAATATATATGTA [CACACA_site663]	9.35
AAAATTTAAAGCATGACACACAATTATATTATGTGC [CACACA_site3435]	9.34
TTGTGAAATAAAATTTGTACACACATATATATATAT [XGTACX_site1078]	9.4
TTTTTTTTGGAATTCACACAAATATAACATGGGTAT [CACACA_site5185]	9.04
TTCTTTTCTTTAGTAGAATGTAAAAAATATAATCTT [XGTACX_negctrl_site290]	8.93
ACTTATATATTATGTTGTCCGTCCATTCTCTTTATC [XGTACX_site3769]	9.91
TTTTCATTCAATTATATTTATATATATATATATATA [GTGCAC_negctrl_site538]	9.11
TACATGTATAAATAAGCACACATGTGGATATGTACA [CACACA_site93]	9.55
CAAAATATTTTTATAACACACATATATATAATGTGC [CACACA_site4767]	9.28
AAATATATATATATATATATATATATATATATATAT [CACACA_negctrl_site677]	8.86
AAATGAATAAATAAGACACACACGAAAATAAGTAAA [CACACA_site71]	10.1
TTATAAAATTACTTGGTGCATTAGAATATTTCAATA	8.91

Sequence	gcPBM binding intensity (ln)
TGATCAGATAGACACACACACAAAAAAAAAAAAAAA [CACACA_site7805]	9.54
ATAAAATATAAAAATTGTACGATAATAATAGTAGGA [XGTACX_site8951]	9.54
AACACTTCTTATTTATGTACTTAATTCCCAACGGAA [XGTACX_site4818]	9.18
AATTACTACATAAATACATGCATAATTATATATATA [TGCATGCA_site783]	9.29
TATCTCTTCATATTGTGTACATATTTTTATTTATTG [XGTACX_site4038]	9.68
TTGTATTATATTGTATTATGTTTAAATGAAAAAAAA [CACACA_negctrl_site662]	8.91
TATTGTTACTTTATATGTACTAATTAAACATATACA [XGTACX_site6363]	9.19
AAATATTAGTAACACAGACACACAAAAAAAAAAAAA [CACACA_site2175]	9.5
AAAAATACCTTATATATACACACTATGTTTTTCTTT [CACACA_site1192]	9.56
AAAAAAAAAAAAAAAAGTACACAAATTTTAAAAATT [XGTACX_site3006]	9.23
TTTTCTAAATAAATAGTGCATTTATTATATATACAT [GTGCAC_site9766]	9.22
TGTTTATTTTTAAAAAGTACATATTTAAAAAACTTC [XGTACX_site271]	8.81
CAAAAGAAGGTAAACACACACACACGCATACAAAAA [CACACA_site7724]	10.1
ATAGAATAAAACTATACACACCTATATTTAAACATA [CACACA_site5106]	9.63
CAAAACCTTATATGTACACACATATACATCACCCTT [CACACA_site3170]	9.67
ATTTCTCTATCGTAATGTACATAAAAAATGAAAAAA [XGTACX_site1201]	8.87
TTGTATTCATAACAACGTACATATTTTGTAACTAAA [XGTACX_site4029]	9.02
TTTCAAACAAAAAGACGTACACTGAAGTTATCCGTC [XGTACX_site8824]	8.91
AAGGAAATATAATATACACACATAAGTGTACTTCTA [CACACA_site6079]	9.36
CAATCAAATAGACACACACACACCTAAACATAAAAG [CACACA_site7322]	10.1
TATTAATAAAAGCATTGTACAGTAATAAATAAATAA [XGTACX_site2924]	9.36
TATATATATAAACACACACACACCAAAGCGTAGCGC [CACACA_site7903]	10.2
AGCCATTAATTCTCTACACACCTTTATGTTATTTAG [CACACA_site3635]	9.71

Sequence	gcPBM binding intensity (ln)
ACCCACTTTTGAGGTGTGCACAATAAATTGGACATT	9.18
ATATATATTTAAACTACACACGCATATCTTAGAAAT [CACACA_site8348]	9.56
TAAGAGATATTTTATTAAATGTTTTATGAATCATGT [TGCATGCA_negctrl_site264]	8.86
AGGAAAAAAAAAATGACACACATATTTGAATTAAAA [CACACA_site1352]	9.49
GTACATACATAAAACACACACATATAGATTTATATA [CACACA_site6945]	9.77
AGTGTGTGTAATAAAGTGCATTAAAAATGACACGTA	9.76
ACTCATAAAAATAGATGTACTTTAATAATTTGATTT [XGTACX_site8763]	9.15
TCAAACGGTTAAATATGTACATATATATATATATAT [XGTACX_site2339]	9.2
AAAAAAAAAAGACACACACACATATAAATATAAATA [CACACA_site6899]	10.2
ATGTCTACAGTTTTTGCACACATATAAATAAAAAAA [CACACA_site3600]	9.22
ATTTTTTTTTTTTTTTTTTTTGAGAAGAACTTTTTC [CACACA_negctrl_site1019]	8.84
AAACATCATAAATATACACACATATTTATATTTATA [CACACA_site6437]	9.53
CCATAACTCATATGCACACATAAATATTACATATAT [CACACA_site3821]	9.38
TTTTAAAAAGAAAAAAATAACATACATATATATATA [CACACA_negctrl_site240]	9.07
TAACACATATATTGTTGTACATTCAAACTGAAAAAT [XGTACX_site5565]	9.28
TTTTTTTTATTAAAAAGTACTAAACAAATTATATAT [XGTACX_site121]	8.9
ATATATATATATATGTGTACATATGTATATATATCT [XGTACX_site2930]	9.31
AGATGGAGAAAGTTATGTACACATATATAAATATGT [XGTACX_site6150]	9.28
CCCATGTAATGAACATGTACATAATAATTTATAAAT [XGTACX_site8687]	9.12
TATATACATATGTGATGTACATTTTTTGTAATATAA [XGTACX_site6985]	9.13
